Source: US20260242504A1 (CHIOME BIOSCIENCE, published 2026)

Columns and labels:
[1] = target: T1, 5T4 on 5T4-expressing CHO-K1 cells (UniProt Q13641 32-420); assay: cell-based or functional assay
T1 sequence (looked up): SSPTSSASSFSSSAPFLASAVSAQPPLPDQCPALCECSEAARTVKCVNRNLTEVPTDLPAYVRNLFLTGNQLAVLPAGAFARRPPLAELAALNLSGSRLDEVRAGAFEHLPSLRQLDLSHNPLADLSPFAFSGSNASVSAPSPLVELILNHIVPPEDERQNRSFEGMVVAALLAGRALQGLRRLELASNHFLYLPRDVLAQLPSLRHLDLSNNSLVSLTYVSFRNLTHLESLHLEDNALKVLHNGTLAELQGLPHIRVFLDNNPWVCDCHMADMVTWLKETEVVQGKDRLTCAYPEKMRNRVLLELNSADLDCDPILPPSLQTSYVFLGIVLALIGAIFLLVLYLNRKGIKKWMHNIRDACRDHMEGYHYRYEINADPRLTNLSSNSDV

[2] = target: T2, recombinant human 5T4 protein (5T4/His) (human, UniProt Q13641 32-355); assay: ELISA, immobilized recombinant human 5T4, 0-500 nM (N=2)
T2 construct: also called Human 5T4/His; recombinant 5T4; not shown: His tag of the bought protein
T2 sequence: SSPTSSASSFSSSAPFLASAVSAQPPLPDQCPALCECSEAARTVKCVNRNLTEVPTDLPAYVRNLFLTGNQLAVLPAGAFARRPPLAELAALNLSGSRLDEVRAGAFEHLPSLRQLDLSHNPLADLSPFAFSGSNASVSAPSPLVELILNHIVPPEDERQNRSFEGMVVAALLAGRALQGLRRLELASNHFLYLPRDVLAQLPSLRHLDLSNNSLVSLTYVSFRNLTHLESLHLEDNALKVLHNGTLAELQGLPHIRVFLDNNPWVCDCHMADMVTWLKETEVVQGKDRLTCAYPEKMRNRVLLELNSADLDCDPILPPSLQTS
Description: The binding affinity of purified 53L10-M13 to 5T4 antigen was examined by ELISA (FIG. 14). A recombinant human 5T4 protein (ACRO Biosystems) was immobilized in a 96-well plate using the same method as that performed in FIG. 2 (Example 1). […] The curve showing the binding affinity of 53L10-M13 to 5T4 overlapped with the curve showing the binding affinity of 53L10 (●) to 5T4. The EC₅₀ values were 0.58 nM for 53L10-M13 and 0.53 nM for 53L10 (FIG. 14B).

[3] = target: T3, recombinant human PD-L1/Fc (human, UniProt Q9NZQ7 partial chain, biotinylated in the competitive ELISA (sites not given)); assay: ELISA, immobilized recombinant human PD-L1/Fc, 0-500 nM (N=2)
T3 construct: Bought from R&D Systems; also called recombinant PD-L1 protein; biotinylated PD-L1 ligand; not shown: Fc part of the bought fusion
Description: The binding affinity of purified 53L10-M13 to recombinant PD-L1 protein was examined by ELISA (FIG. 16). A recombinant human PD-L1/Fc protein (R&D Biosystems) was immobilized in a 96-well plate using the same method as that performed in Example 4. According to the procedure described in “Materials and Methods” later, the binding assay of 53L10-M13 and 53L10 to human PD-L1 protein was performed at increasing concentrations (0-500 nM). […] The curve showing the binding affinity of 53L10-M13 to PD-L1 overlapped with the curve showing the binding affinity of 53L10 (●) to PD-L1.

recombinant human PD-L1/Fc, sequence (Q9NZQ7 19-239 limits assumed): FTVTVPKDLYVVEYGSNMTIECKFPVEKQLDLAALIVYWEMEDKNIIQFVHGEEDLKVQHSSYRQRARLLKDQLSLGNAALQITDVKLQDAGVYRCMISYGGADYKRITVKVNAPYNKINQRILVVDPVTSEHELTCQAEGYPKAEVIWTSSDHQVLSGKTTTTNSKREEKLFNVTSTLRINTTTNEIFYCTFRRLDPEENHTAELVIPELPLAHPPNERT

B1: 53L10 tribody (other)
chain 1: QVQLVQSGAEVKKPGASVKVSCKASGYSFTSYYMHWVKQSPGQGLEWIGRINPNNGVTLYNQKFKDRVTMTRDTSISTAYMELSRLRSDDTAVYYCARSTMITNYVMDYWGQGTLVTVSSASTKGPSVFPLAPSSKSTSGGTAALGCLVKDYFPEPVTVSWNSGALTSGVHTFPAVLQSSGLYSLSSVVTVPSSSLGTQTYICNVNHKPSNTKVDKKVEPKSCDKTHTGPGGGSPGQVQLVQSGAELKKPGASVKVSCKASGYTFTRYTMHWVRQAPGQCLEWMGYINPSRGYTNYNQKFKDKATLTADKSTSTAYMELRSLRSDDTAVYYCARYYDDHYSLDYWGQGTLVTVSSASGGGGSGGGGSGGGGSAGDIQLTQSPSILSASVGDRVTITCRASSSVSYMNWYQQKPGKAPKRWIYDTSKVASGVPYRFSGSGSGTEYTLTISSMQPEDFATYYCQQWSSNPLTFGCGTKVEIKSG
chain 2: DIVMTQSPDSLAVSLGERATINCKASQSVSNDVAWYQQKPGQPPKLLIYYTSSRYAGVPDRFSGSGSGTDFTLTISSLQAEDVAVYYCQQDYNSPPTFGGGTKLEIKRTVAAPSVFIFPPSDEQLKSGTASVVCLLNNFYPREAKVQWKVDNALQSGNSQESVTEQDSKDSTYSLSSTLTLSKADYEKHKVYACEVTHQGLSSPVTKSFNRGECGPGGGSPG[about 100 residues not given here]SKWELVDPYGNWGQGTMVTVSSGGGGSGGGGSGGGGSNFMLTQPHSVSESPGKTITISCTRSSGSIAGNYVQWYQQRPGSAPIIVIYEDNQRPSGVPDRFSGSIDSSSNSASLTISRLKTEDEADYYCQSYEASNVVFGGGTKLTVLSG
notes: Trispecific tribody, a heterodimer; L chain derivative: VL(5T4)-CL-scFv(10.12); also called 5T4xCD3xPD-L1
EC50 of luciferase activity, T cell activation bioassay (NFAT) with CHO-5T4 target cells [1]: 0.01 nM
EC50 [2]: 0.53 nM
EC50 [3]: 34.4 nM
